About 540 (0.36%) of roughly 150,000 compounds showed an effect of 50% or more. The list shows a part of the results.
test system: Plasmodium falciparum; assay: Primary screen in NF54 nanoGlo assay, in single point, at 2uM, 72h; a lower Z score goes with more inhibition; assay type: functional, Erythrocyte; conditions: timepoint 72 hour

| Structure (SMILES) | % Inhibition | Z score |
| --- | --- | --- |
| CC[C@H]1c2cccn2CCN1C(=O)CCc1cscn1 | 35% | -5.02 |
| CC1CC(C(=O)N2CCCC(Cc3ccccc3)C2)CCO1 (centres undefined) | -24% | 2.55 |
| CCCc1cnc(NCC[C@H]2CCCCN2C2CCCC2)nc1 | 0% | -0.01 |
| COc1cccc(Nc2cc(C)nc3ccnn23)c1 | 5% | -0.5 |
| CCOC(CN1CCOCC12CCCC2)OCC | 2% | -0.25 |
| CCCCCNC(=O)[C@H]1N(C(=O)OC(C)(C)C)CC12CCOCC2 | -17% | 2.76 |
| CC(C)C(=O)Nc1ccc(NCc2ccncc2)cc1 | -16% | 3.14 |
| CC(C)C[C@]1(c2nc(-c3ccccc3F)no2)CCNC1=O | 5% | -0.73 |
| Cc1ccc2c(c1)N(S(C)(=O)=O)C[C@@H](C(=O)Nc1ccccc1C(N)=O)O2 | -17% | 2.13 |
| Cc1nc([C@H](C)NC(=O)C2(C#N)CCOCC2)cs1 | -1% | 0.28 |
| CN(CC(=O)NCC1CCCCC1)c1ccc(O)cc1 | -3% | 0.43 |
| CC1CC(NC(=O)C2(CF)CCC2)CCO1 (centres undefined) | 1% | -0.12 |
| CCc1ccc(NC(=O)c2ccc(N3CC(C)CC(C)C3)c(NS(=O)(=O)c3ccc(Cl)cc3)c2)cc1 (centres undefined) | -7% | 0.86 |
| c1ccc(-c2noc([C@@H]3CCCN3C3CCCC3)n2)nc1 | 7% | -0.87 |
| Cc1cccc(NS(=O)(=O)c2c(C)sc(C)c2-c2ccno2)c1 | 1% | -0.11 |
| O=S1(=O)C[C@@H]2[C@H](C1)N(Cc1ccccc1)CCN2CC1CC1 | -10% | 1.14 |
| Cc1ccc2[nH]c3c(c2c1)CN(C(=O)OC(C)(C)C)CCC3 | 1% | -0.11 |
| CC1CCC(NC(=O)CNC(=O)C2CCCCC2)CC1 (centres undefined) | -5% | 0.82 |
| CCn1nc(C(=O)N2CCCCCC2)c2c1CC[C@H](NCc1ccc(Cl)s1)C2 | -11% | 2.12 |
| C[C@H]1CN(Cc2cc(-c3cccs3)on2)CCO1 | 1% | -0.14 |
| CCC[C@@H](C(=O)NCC(=O)N(C)C)N1CCN(C(=O)OC(C)(C)C)CC1 | -2% | 0.22 |
| Cc1c(C(=O)NC2CCCC(C(N)=O)C2)cccc1-c1ccccn1 (centres undefined) | -16% | 2.04 |

| Structure (SMILES) | % Inhibition | Z score |
| --- | --- | --- |
| C[C@@H](Cc1cccs1)NC(=O)C1(C2(O)CCNCC2)CCC1 | -6% | 0.67 |
| CC(C)COC(C)C(=O)N(C)C(C)C1CC1 (centres undefined) | -4% | 0.31 |
| O=C(NCc1cccnc1N1CCOCC1)Nc1cc(C(F)(F)F)ccc1Cl | -2% | 0.27 |
| FC(F)Cn1cc(Nc2ccc(C(F)(F)F)cn2)cn1 | -12% | 1.17 |
| Cc1nc2nc(N3CCCCC3)sc2c(=O)[nH]1 | 36% | -4.04 |
| COC(=O)c1nc(NC(=O)c2c(C)noc2C)sc1C(C)C | -2% | 0.26 |
| COc1ccsc1C(=O)Nc1ccc2c(c1)C(=O)NCC2 | 8% | -0.91 |
| O=C(Nc1cccc2c1CCCC2)c1ccc(S(=O)(=O)N2CCOCC2)cc1 | -14% | 1.22 |
| Cc1cc(C(NCC2CCCS2(=O)=O)c2cccnc2)ccc1F (centres undefined) | -6% | 0.88 |
| CC1CCC(C)N1C(C)c1nc(C2CCCN2S(C)(=O)=O)no1 (centres undefined) | -12% | 1.58 |
| CC(C)n1cnnc1-c1nn(C)c2c1CN(C(=O)CCc1ccccc1)CC2 | -15% | 2.19 |
| CCOC[C@H]1CCCCN1c1ncnc2c1ncn2CC | 11% | -1.4 |
| COCC(COC)N1CCN(S(=O)(=O)N2CCCCCC2)CC1 | -4% | 0.79 |
| O=C(c1cnns1)N1CCOc2ccccc2[C@@H]1CO | -7% | 1.43 |
| CCn1cc(S(=O)(=O)N2CCn3c(nn(C)c3=O)[C@H]2c2ccccc2)cn1 | -6% | 0.99 |
| COc1ccc(C(=O)N2C[C@@H]3OCC(=O)N(Cc4cccnc4)[C@@H]3C2)cc1 | 22% | -2.56 |
| CCN(CC)CC(=O)Nc1ccc(OC2CCOCC2)c(C)c1 | -1% | 0.12 |
| CCc1nc(C)c(-c2nc(CC(N)=O)nn2C2Cc3ccccc3C2)s1 | 4% | -0.79 |
| CC=CCS(=O)(=O)[C@@H](C)C(=O)N1CCC(C)CC1 | -1% | 0.1 |
| CC(=O)c1ccc(NC(=O)N2CCCC3CN(C)CCC32)cc1 (centres undefined) | -10% | 1.78 |
| Cc1nc2c(c(=O)n1C)CN(C(=O)c1nn(C)c(=O)c3ccccc13)C2 | -3% | 0.49 |
| CC(C)C(C(=O)O)N1CCC(NC(=O)C2(c3cccc(C#N)c3)CCC2)C1=O (centres undefined) | 2% | -0.36 |

| Structure (SMILES) | % Inhibition | Z score |
| --- | --- | --- |
| O=C(CCS(=O)(=O)c1ccc(Cl)cc1)Nc1nnc(-c2ccco2)o1 | -10% | 1.84 |
| O=C(CNCc1ccc(Cl)cc1)N1CCc2ccccc2C1 | -9% | 1.6 |
| COc1cc(NC(=O)Cn2cnc3c(-c4ccc(F)cc4)nsc3c2=O)cc(OC)c1 | -7% | 1.08 |
| COCC(=O)N[C@H](C(=O)NCC1CC1(C)C)C(C)C (some centres undefined) | -1% | 0.11 |
| O=C(O)COc1ccc(S(=O)(=O)Nc2ccccc2C(=O)NCCc2ccccc2)cc1Cl | 6% | -0.76 |
| Fc1ccc(CN2C[C@@H]3CC[C@H]2CNC3)c(F)c1F | -10% | 1.73 |
| O=C(O)[C@H]1CN(C(=O)Cc2ccccc2F)C[C@@H]1C1CC1 | 1% | -0.15 |
| CCc1nc(N)nc(N(C)C[C@H]2CCCCO2)c1C | -12% | 2.26 |
| N#Cc1nccnc1N1CC(n2cc(-c3ccccc3)nn2)C1 | -20% | 2.02 |
| CCOC(=O)c1c(C)[nH]c(CCC(=O)N2CCCCC2)c1C | -3% | 0.56 |
| Cc1cc(C)cc(OCC(=O)N[C@](C)(C#N)C(C)C)c1 | 2% | -0.22 |
| CNC(=O)c1cc(S(=O)(=O)N2CC(C)OC(C)C2)ccc1NCc1ccccc1 (centres undefined) | 0% | -0.04 |
| Cc1ccc([C@H](CNC(=O)c2ccco2)N2CCCC2)o1 | -3% | 0.5 |
| Cc1cnn(CCC(=O)N2CCCC[C@@H]2CCN2CCCC2)c1 | -15% | 2.77 |
| O=C(Nc1ccc2c(c1)CCC2)[C@H]1CNC[C@@H](C(=O)NC2CCCCC2)C1 | -14% | 1.67 |
| CC(C)=C1CC[C@@H](C)CC1NCC(O)c1cnn(C)c1 (some centres undefined) | 0% | 0 |
| Cc1cc(C)n(C)c(=O)c1-c1nc([C@]2(c3ccc(F)cc3)CCOC2)no1 | 1% | -0.19 |
| CCc1ccc(NC(=O)Cn2c3c(c(=O)n4nc(-c5ccc(C)cc5)nc24)CCC3)cc1 | 14% | -1.73 |
| CC(C)c1nnsc1C(=O)N1CCC[C@H](CCc2ccc(F)cc2F)C1 | 11% | -1.37 |
| Cc1nn(CCCC(=O)NCc2ccc3c(c2)OCO3)c(=O)c2noc(C)c12 | 0% | -0.09 |
| O=C(Nc1ccc(Oc2ccccc2)cc1)c1cn(-c2ccc(F)cc2F)c(=O)c2ccccc12 | 20% | -2.34 |
| Nc1nonc1C(=O)N1CCCN(S(=O)(=O)c2cccs2)CC1 | 33% | -4.45 |

| Structure (SMILES) | % Inhibition | Z score |
| --- | --- | --- |
| O=C(O)[C@H]1CCCN1CCCOCCc1ccccc1 | -8% | 0.65 |
| CC(CO)(CO)NC(=O)NCc1cc(F)cc(C(F)(F)F)c1 | -5% | 0.7 |
| Cn1ncc(Cl)c1S(=O)(=O)N1C[C@H](O)C(C)(C)C1 | -8% | 1.06 |
| CC(C)(C)n1cnc(C(=O)N2CCCC23CCCCC3)n1 | 0% | -0.06 |
| CN(CCCNC(=O)C1CCCC1)CC(F)(F)F | 2% | -0.31 |
| CC(C)(C)c1nnc(NCCOCc2ccccc2)o1 | -7% | 1.4 |
| C1CCc2c(CNC3C[C@@H]4CCCC[C@H]34)noc2C1 (some centres undefined) | 13% | -1.92 |
| CCN(CCCCO)CCOc1ccc(OC)cc1 | -3% | 0.51 |
| CCc1cccc2[nH]c(C(=O)N3CCNC[C@H]3C)cc12 | 22% | -2.73 |
| Cc1n[nH]c(CC(=O)N2CCO[C@@H](COCC3CC3)C2)n1 | 26% | -3.3 |
| CCCN1CCCN(CCOc2cccc(S(C)(=O)=O)c2)CC1 | -16% | 2.11 |
| Cn1cccc(C(=O)N[C@H]2CCOC[C@@H]2O)c1=O | -4% | 0.57 |
| CCCCc1nc(CN2CC[C@H](CNC(C)=O)[C@@H](O)C2)c[nH]1 | 8% | -1.08 |
| NC(=NOCC(=O)NCc1cccc(Cl)c1)c1cccnc1Oc1ccccc1 | 6% | -0.81 |
| Cc1nsc(N2CCC(CCCn3ccnc3)CC2)c1C#N | -17% | 3.34 |
| OC[C@@H]1CCCN(Cc2cc3n(n2)CCCC3)[C@@H]1C(F)(F)F | -9% | 1.32 |
| CN(C)c1ccc(NC(=O)C2CCC2)cc1CN(C[C@H]1CCCO1)C(=O)c1ccco1 | -2% | 0.36 |
| Cc1n[nH]c(C)c1CNc1cncc(F)c1 | -9% | 0.93 |
| NC[C@H]1Cc2cccc(-c3cccc(-n4cnnc4)c3)c2O1 | -10% | 1.24 |
| Cc1ccc(-c2nnc3n2CCOC3)o1 | 3% | -0.59 |
| COc1ccc(-c2csc(C3=C(O)CN(CCc4nc(C)cs4)C3=N)n2)cc1 | 6% | -0.7 |

— ChEMBL document CHEMBL4888484, “Replenishing the malaria drug discovery pipeline: Screening and hit evaluation of the MMV Hit Generation Library 1 (HGL1) against asexual blood stage Plasmodium falciparum ,using a nano luciferase reporter read-out” (2022)
